# The supplement of paper PMC11417369
# Some of the results follow.
# Tested on: PfSIP2 AP2 domain 1 (GST-tagged)
# Experiment: gcPBM binding intensity (ln(normalized median fluorescence intensity)); higher = stronger DNA binding
# In short: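 The highest Masliner-normalised natural-log median intensity across replicate spots of either probe orientation is reported as binding intensity. GST-tagged P. falciparum DNA-binding domains expressed in E. coli were applied for 1 h to an Agilent 4 × 180k array of primer-extended double-stranded 36-bp intergenic genomic probes plus negative controls, and bound protein was detected with Alexa488 anti-GST antibody and scanned at 488 nm.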
row,Sequence,gcPBM binding intensity (ln)
1,TAAAATAAAACAAACACACACACACCGACACAAAAA [CACACA_site5993],7.05
2,ACATTCTATACATACACACCCACACCCAAAAAAAAA [CACACA_site863],7.71
3,TATATATCAATATACACACACACATATTTATTTATA [CACACA_site6858],7.05
4,ATGTATCATAAGAACTGTGTGGTTACAGACACGAAC [GTGCAC_negctrl_site416],7.04
5,TACTATGCCCCATATAAACACACAAATAAAAAGAAT [CACACA_site8857],7.67
6,TATAAACCTACATACACACATACAATAAGTAAAATG [CACACA_site1921],6.99
7,AACTATATATATAATTCACACATGTTTTAAAATTTT [CACACA_site4971],7.22
8,TATAATTAATTAGAAGTGCATTAGGTAACAACTGTC [GTGCAC_site9746],8.02
9,CTATGCATTTATAGTGCATGTAAAATATAAGATAAT [TGCATGCA_site71],10.3
10,AACGCAGTTTAATATACACACCAAAAAAAAAAAAAG [CACACA_site5643],7.04
11,TTTCCTTTTTTAATATGTACACATATTATTATATCT [XGTACX_site3079],7.07
12,ATATATTCTTATTGCTGTACACATATTTTCTAAAAA [XGTACX_site4851],7.25
13,TTAAAAATAAAACAAAGTACTCAAGTTATTGTCTTT [XGTACX_site1584],6.7
14,TATGATATGTATGGAAGTACGAAGAGGGATGATCAG [XGTACX_site1677],7.09
15,CACGCATACAGACACACACACACACCCATATATATA [CACACA_site636],7.36
16,CGTAAATTTTTCTAAGTGCATGTTAATTTTTCAATT,9.1
17,TAAATACCTATATGGCGTACTATTATCATAGTATAT [XGTACX_site5423],6.79
18,TATTTATTATGATACTCATATTATTCTATGATTAAA [GTGCAC_negctrl_site486],6.67
19,TGAAATAAAATTTGTACACACATATATATATATATA [CACACA_site586],9.19
20,GTGAATCCTAAGTGTACACATCTTACAGATATATAT [CACACA_site4836],7.19
21,ATTTTCAAATTAAAATGTACAAATGAAAGAAAGGGA [XGTACX_site7048],7.24
22,GCACAAATCATCAAATGTACAGAAAATGCTGTCAAT [XGTACX_site5037],6.88
23,TTCCTTCATTGGAAAAGTACACAATATTGTCGTTTA [XGTACX_site8057],7.11

row,Sequence,gcPBM binding intensity (ln)
1,ATATAGGTATAATACACACACTAATATGTAACTGTA [CACACA_site7011],7.13
2,ATGTCATATATATGTTGTACGAGTTTGTTTATGTAT [XGTACX_site1150],7.21
3,TTCATTTTATAAAAAGCACACATATAGTTATATGCA [CACACA_site9228],6.85
4,AGTTTACATTAAATCACGCACACAAAAAAAAAAAAA [CACACA_site2419],7.16
5,TACCTTTTTTATGTTGCACACTGGGATGTTTTCTAA [CACACA_site1653],7.61
6,ATTCATATTTTTCAAGTGCGCATTAAAATATTAACC [GTGCAC_site9741],9.31
7,AATATATTTTTTTTTGGTACACAAGCACATCTATAC [XGTACX_site2183],7.36
8,TTTCGATTATGTTTTTGTACGCAATATATTAATTCT [XGTACX_site3634],7.31
9,AATGTGCAGAAAAGTGGTACATATGATTGTTAAGAG [XGTACX_site1038],7.3
10,CCATGATTATTAGATTGTACATAACATACAAATTGA [XGTACX_site314],6.83
11,AAAACAAATAAGTAAACACACATATATAATATATAT [CACACA_site2586],7.18
12,AAAAAAAAAAAAACTAGTACATATATATAGTATGAA [XGTACX_site6279],7.22
13,GAATATAAAAGGAACGGTACAGAAAAAAAAAAAAAA [XGTACX_site3917],6.87
14,TTTATTTTTTATATATCACTTAAAAAAAAAAAAAAA [CACACA_negctrl_site249],7.05
15,ATTTATATTTTATATACACACATGAACTTATATGGA [CACACA_site3167],6.99
16,ATAACCTAATAATACACACACATGAATATATATAAT [CACACA_site4689],7.11
17,CTTTTTTTTTTATGCACACACAATTATACATTCCTT [CACACA_site3877],7.58
18,AATATAGTCTCACATACACACATATATATTTATATA [CACACA_site2503],7.1
19,ATGTAATATATTATATGTACATATTTTTATGTAGAT [XGTACX_site5945],6.95
20,ACAAGTGTATATGTTATATATATATATATATATATA [CACACA_negctrl_site1686],9.73
21,TACGTATTCATGTATAGTACTCTTTTTTTTAATAAA [XGTACX_site3299],6.84
22,TTATTACGAACTCTGCAACATATATAAATAAATAAA [CACACA_negctrl_site44],7.25
23,AAAATAATATTTAATACACACATAATTACAATATAA [CACACA_site6510],6.94

row,Sequence,gcPBM binding intensity (ln)
1,AAAGATAAAATATATACACACACATAAATACGTACA [CACACA_site8275],7.26
2,ATTATATTTGAATGGTGTACTATAATAATGTAGTTT [XGTACX_site8069],7.14
3,ACATATATATATATATAAATATATATGTATGTATTT [XGTACX_negctrl_site237],7.18
4,GAATAAATTAAATTCACACATAAAATACAAAATACA [CACACA_site5495],6.9
5,CATACACGCGGACACACACACACACGCATATATAAC [CACACA_site6427],7.42
6,AAAGAAAATAGGTGTACACATAATAAATACAGCTAT [CACACA_site5917],7.64
7,CTTATATTAATTATTACACACATATATATAAATGCA [CACACA_site770],7.18
8,AAAAAAAAAAGAAACACACACATATATATATATAAT [CACACA_site5052],7.23
9,TATATATATTCTTTAAAACACACGTAAAGAAGAATT [CACACA_site2718],7.22
10,TGCTATATTATTATCGCACACCGTTGATTCTAAATA [CACACA_site1207],7
11,CATTTATTTATATACACACACACAAAAAAAAAAAAA [CACACA_site7279],7.07
12,ATAAGTGTATAAAAATGTACGTGTATAAAAATATGT [XGTACX_site8235],7.54
13,TTTTTAATTTAAAAAAATAATATTTTATATTCCGAA [CACACA_negctrl_site108],7.01
14,TATTTTTTATTTTTTTGTACATATTTGATAATTAAT [XGTACX_site316],7.09
15,GTAAGCATCAAAAAAGGTACAGAAATTATAAATAAA [XGTACX_site6708],6.89
16,AAATATTTATATATATGTACACATATAATATTTTTA [XGTACX_site2338],6.98
17,ATATATGTTATTATTTGTACACACACATATATATCC [XGTACX_site7657],7.09
18,GAAAATTTATTTTTGGTGCATGTATTTATTTATTTT,9.25
19,ATTTCTAATATTTTTGCACACTAAACAATAAATTTC [CACACA_site3943],7.5
20,GTATATAATATTAGTGCACACACAAAAATGTACTAA [CACACA_site8112],10.9
21,AGTTTAATATAAAATACACACTACTCTTATAAATAT [CACACA_site6803],6.93
22,ATTTTCTTTCTATGCACACGCACGTATTTGCACCCA [CACACA_site3350],11.9
23,GAAATAATAAATTAAAAATCGTTTATAACATTTAAC [CACACA_negctrl_site425],6.65

row,Sequence,gcPBM binding intensity (ln)
1,CTTTTTTTTTGATGTTGTACATATATATTATATAAT [XGTACX_site1321],7.16
2,AGTAATATAATATAAGCACACGTGTATTTATTTAGT [CACACA_site4246],7.09
3,TGGGAGCACAGACACACACACACACCCATATATATA [CACACA_site335],7.65
4,TACAAAATAAAAATAATTCTTTCAAAAAATAATAAA [XGTACX_negctrl_site368],6.78
5,TGCACATTTATGTAACGTACAAAATATAATATGTTA [XGTACX_site8255],7.07
6,TCCTTATATTGGCACACACACACAATAAAATGAAAA [CACACA_site4715],7.77
7,GGTTGCTTCAGTGAATGTACATAGTGGTAAACAAGC [XGTACX_site166],7.5
8,GTATAAAAGTAATGTAGTACTTATATATTTTTATTT [XGTACX_site8975],6.98
9,AACATAAGTAAGAATACATGCGGAAATTATATAGAA [TGCATGCA_site112],7.05
10,TATAAATTTAAAATGACACACACTAAAGTTATTTAA [CACACA_site6700],6.77
11,TAAATATTATAAATGATACACACTTAAAATACTCAC [CACACA_site2710],6.75
12,TCCCTTAAAATGATATGTACATAAAAATAAAAAAAA [XGTACX_site836],7.36
13,TATATATTTGTTCACACACACACAAAAAAAAAAAAA [CACACA_site2475],7.25
14,TAAGGACTAATATTTGAACACACATATAATATATAC [CACACA_site9325],6.86
15,CATATATATATATATATATATATATTTATTTATTTA [TGCATGCA_negctrl_site165],8.11
16,GTCATCAAGTATTAAGTGCATTAAAAATAAAATATA,9.02
17,TTAAAAGAAAATAACACACACAAAAAAAAAAAAAAA [CACACA_site2117],6.75
18,TTTTGTTTTAAAAGTACACACTTTTAATTAGATTTC [CACACA_site4788],6.86
19,AAAATACACAACATATATATATATATATATATATAT [XGTACX_negctrl_site21],9.49
20,TGATCAATGGATTTAACACACAAAAAAAAAAAAAAA [CACACA_site3845],6.75
